Assay results taken from article PMC4336329 (PLoS ONE, 2015).
In all, about 310,000 compounds went through this assay and about 2,200 (0.71%) showed an effect of 50% or more. Effects have a minus sign here. The list shows a part of the results.

biological target: human ether-à-go-go-related gene (hERG) potassium channel (human, UniProt Q12809); assay: primary screen, population patch clamp on CHO cells stably expressing hERG
Sequence (Q12809 whole entry, looked up): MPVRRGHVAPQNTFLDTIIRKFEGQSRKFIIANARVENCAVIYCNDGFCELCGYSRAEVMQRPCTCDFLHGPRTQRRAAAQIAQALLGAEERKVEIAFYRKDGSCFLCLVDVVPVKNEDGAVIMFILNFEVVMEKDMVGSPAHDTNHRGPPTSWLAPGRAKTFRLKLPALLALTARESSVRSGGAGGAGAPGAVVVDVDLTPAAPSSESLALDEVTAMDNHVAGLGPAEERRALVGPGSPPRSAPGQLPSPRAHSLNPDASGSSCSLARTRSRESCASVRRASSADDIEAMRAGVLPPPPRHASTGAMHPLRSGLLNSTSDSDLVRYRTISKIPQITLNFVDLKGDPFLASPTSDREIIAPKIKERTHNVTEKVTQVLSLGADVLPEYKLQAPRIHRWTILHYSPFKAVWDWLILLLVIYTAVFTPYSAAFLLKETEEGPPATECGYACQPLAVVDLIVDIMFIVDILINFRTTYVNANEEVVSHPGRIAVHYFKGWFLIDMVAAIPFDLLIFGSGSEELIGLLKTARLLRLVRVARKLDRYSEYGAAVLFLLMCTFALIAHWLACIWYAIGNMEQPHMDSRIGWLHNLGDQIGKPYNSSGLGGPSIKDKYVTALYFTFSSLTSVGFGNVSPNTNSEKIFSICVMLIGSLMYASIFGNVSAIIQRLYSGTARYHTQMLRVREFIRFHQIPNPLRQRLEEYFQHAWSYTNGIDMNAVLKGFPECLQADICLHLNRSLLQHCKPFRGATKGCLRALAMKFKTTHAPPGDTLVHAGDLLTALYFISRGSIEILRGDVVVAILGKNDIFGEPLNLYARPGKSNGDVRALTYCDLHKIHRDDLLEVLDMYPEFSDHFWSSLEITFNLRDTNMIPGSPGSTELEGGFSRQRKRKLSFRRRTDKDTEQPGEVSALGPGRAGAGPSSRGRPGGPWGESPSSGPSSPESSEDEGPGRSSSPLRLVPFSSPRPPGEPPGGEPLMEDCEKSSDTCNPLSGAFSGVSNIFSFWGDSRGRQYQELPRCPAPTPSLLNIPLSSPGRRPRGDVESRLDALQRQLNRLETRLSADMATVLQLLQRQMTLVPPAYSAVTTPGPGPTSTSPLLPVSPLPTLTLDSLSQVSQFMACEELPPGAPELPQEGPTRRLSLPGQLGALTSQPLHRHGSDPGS

Structure (SMILES)	hERG current change (%, negative = inhibition) at 1uM [%]
Cc1cccc(N=Nc2c(C)[nH]n(-c3ccccc3)c2=O)c1	15.5
COCCn1nnnc1C(c1cc2ccc(OC)cc2[nH]c1=O)N1CCc2ccccc2C1 (stereo not shown)	-0.0705
Cc1cccc(NC(=S)NC(=O)/C=C/c2ccco2)n1	10.5
CCN(C(=O)COC(=O)c1nc2nc(C)cc(C)n2n1)C1CCCCC1	12.6
COC(=O)c1[nH]c2cccc(Cl)c2c1NC(=O)CN(C)C1CCCCC1	2.44
O=C(Nc1cccc(-n2cnnn2)c1)C1CCCN(Cc2cccc(C(F)(F)F)c2)C1 (stereo not shown)	13.9
COc1ccc(N2CC(NS(=O)(=O)c3cccs3)CC2=O)cc1OC (stereo not shown)	3.05
Cc1cc(Br)cc(C)c1NC(=O)c1ccccc1[N+](=O)[O-]	16.2
COc1ccc(S(=O)(=O)c2ccccc2)cc1NS(=O)(=O)c1cccc(C(=O)O)c1	3.44
Cc1ccc(Cl)cc1N1CCN(C(=O)c2cc3c(=O)n(C)c4ccccc4c3n2C)CC1	10.2
O=[N+]([O-])c1cccc(Cl)c1NCCNc1ncc(C(F)(F)F)cc1Cl	10.6
O=C(NCCc1ccc(Cl)cc1)c1ccc(CS(=O)Cc2ccccc2Cl)o1 (stereo not shown)	4.61
O=C(NC1CCCC1)c1cc(-c2ccc(F)cc2)on1	10.4
Cc1ccc(CC(=O)Nc2ccccc2N2CCOCC2)cc1C	-6.3
O=C(O)C1CCCCC1C(=O)Nc1cnn(Cc2ccccc2)c1 (stereo not shown)	3.79
Cc1cc(C2=NNC(=NC3CC3)SC2)c(C)n1Cc1ccco1	-0.661
CC(OC(=O)CCc1nc2ccccc2c(=O)[nH]1)C(=O)c1ccc(C(C)(C)C)cc1 (stereo not shown)	10.3
Cn1c(SCC(=O)NNC(=O)c2ccccc2Br)nnc1C(F)(F)F	12.7
CN(Cc1ccon1)Cc1cn(C)nc1-c1ccc(Oc2ccccc2)cc1	12.4
COc1ccc(OCC(=O)C2CC2)c(C#N)c1	5.07
COC(=O)c1sc(N2CCCCC2)c(C#N)c1N	11.9
Cc1cccc(N2CCN(C(=O)C3CCCN(S(=O)(=O)c4cnc[nH]4)C3)CC2C)c1 (stereo not shown)	-2.59

Structure (SMILES)	hERG current change (%, negative = inhibition) at 1uM [%]
COc1ccccc1CNC(=O)COC(=O)c1cccnc1SCC(=O)NCc1ccccc1OC	5.22
COCCCn1c(SCC(=O)NC2CCCC2)nnc1-c1ccco1	5.97
COc1ccc(CN(C)C(=O)C2CCN(S(=O)(=O)c3cccs3)CC2)cc1F	-5.69
CSc1ccccc1NC(=O)c1cc(Cl)sc1Cl	7.18
CN1CCN(CC(=O)Nc2c(C(=O)c3ccccc3)oc3ccccc23)CC1	-83.2
CCn1cc(C(=O)N(C)c2ccccc2F)c2cc(OC)c(OC)cc2c1=O	18
Cc1nn(Cc2ccccc2)c(Cl)c1C(=O)NCCc1ccccc1	6.2
CCOC(=O)c1ccc(NC(=O)Cn2c(-c3nonc3N)nc3ccccc32)cc1	0.67
Cc1ccc(S(=O)(=O)Nc2c3ccccc3nc(=O)n2-c2ccccc2)cc1	18.4
Cc1ccc(F)c(N=Cc2c(O)c3ccccc3oc2=O)c1	13.9
CS(=O)(=O)N1c2cccc3cccc(c23)S1(=O)=O	13.7
Cc1ccc([N+](=O)[O-])cc1S(=O)(=O)Nc1cccc(-c2ccc(N3CCOCC3)nn2)c1	5.19
CC(OC(=O)CCCN=C1NS(=O)(=O)c2ccccc21)C(=O)Nc1ccc(F)c(F)c1F (stereo not shown)	0.447
N#Cc1cn(CC(=O)N2CCc3ccccc3C2)c2ccccc12	11.9
Cc1c(NC2=CC(=O)CCC2)c(=O)n(-c2ccccc2)n1C	9.41
O=C(Cn1nc(-c2ccco2)ccc1=O)Nc1cc(Cl)ccc1Cl	9.71
COc1cc(C(=O)Nc2c(C(=O)O)[nH]c3ccc(Br)cc23)cc(OC)c1OC	6.19
O=C(Nc1ccc(S(=O)(=O)NC2CCCCC2)cc1)c1ccc(Br)o1	1.61
COc1ccc(NC(=O)NCc2ccco2)cc1OC	1.01
OC1CCCC1	14.5
COc1ccc(C(CNC(=O)c2cccc(S(=O)(=O)NCc3ccccc3)c2)N(C)C)cc1 (stereo not shown)	-4.45
